Several values for one entry are separate records, joined by “and”; a condition that tells them apart may be missing. Equal values may be shown once. The campaign covered roughly 420,000 compounds. About 64,000 (15%) were called active. Inconclusive results, whose numbers are uncertain, are shown with a selection of clear calls. Calls come from the whole dose curve; as a rule, active = well fitted inhibition curve with a large enough effect; inconclusive = small, poorly fitted or top-dose-only effect; inactive = flat fitted curve, though single readings scatter. Where the call is inconclusive, the potency comes from a doubtful curve fit.
Assay: qHTS for Inhibitors of human tyrosyl-DNA phosphodiesterase 1 (TDP1): qHTS in cells in absence of CPT; note: nearly all actives have a fitted effect of over 55% in size
Conditions: DT40 Tdp1-/- hTDP1 cells, no CPT, ATP luminescence, 48 h; activity change, negative = growth inhibition: at 46.2 µM (top of the series)
Method in brief: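 Cells were dispensed at 400 per well, compounds added by pin tool, plates incubated ≥48 hr at 37 °C, then CellTiter-Glo added for 30 min at room temperature before luminescence reading. Line: DT40 Tdp1-/- complemented with hTDP1; camptothecin omitted.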
% is set by controls: 0 for no effect and ±100 for the full control effect; potency is the fitted concentration of half-maximal effect; tags give direction and shape of the fitted curve.

| Structure (SMILES) | Potency | activity change, negative = growth inhibition |
| --- | --- | --- |
| COC(=O)Cn1c2nc3ccccc3nc2c2cccc(C)c21 | inconclusive: 20.6 µM [inhibitor, single point] |  |
| O=C(c1ccc(Oc2ccc(C(F)(F)F)cc2[N+](=O)[O-])cc1)N1CCOCC1 | active: 14.6 µM |  |
| Cc1ccc(O)c(C2=Nc3ccccc3N=C(c3ccc([N+](=O)[O-])cc3)C2)c1 | inconclusive: 23.1 µM [inhibitor, single point] |  |
| CSc1nc2sc3c(c2c(=O)n1C)CCCC3 | inconclusive: 14.1 µM [inhibitor, single point] |  |
| Cc1ccc(N(C(C)C(=O)N2CCCCC2)S(C)(=O)=O)cc1C (stereo not given) | inactive |  |
| O=C(Nc1ccno1)Nc1ccc(Cl)cc1Cl | inconclusive: 20.6 µM [inhibitor, single point] |  |
| Cc1cc(Oc2cccc3c2S(=O)(=O)N(C2CCCC2)CC(COCc2ccccc2)O3)cc(C)c1C (stereo not given) | active: 16.4 µM |  |
| Cc1ccc(C(=O)c2c3ccc(C(F)(F)F)cc3[n+]([O-])n2CCCN)cc1 | active: 23.1 µM |  |
| Cc1ccc(-n2ncc3c(NCc4ccc5c(c4)OCO5)ncnc32)c(C)c1 | inconclusive: 29.1 µM [inhibitor, single point] |  |
| Cc1ccc(NC(=O)c2ccc3nc(N4CCOCC4)sc3c2)c(Cl)c1 | inconclusive: 7.31 µM [inhibitor, partial curve] |  |
| CC(C)(C)S(=O)(=O)c1ccccc1-c1noc(-c2ccccc2)c1C(N)=O | inactive |  |
| COc1ccccc1CNC(=O)C(=O)NCC1OCCN1S(=O)(=O)c1ccccc1 (stereo not given) | inactive |  |
| CCN(CC)C(CNS(=O)(=O)c1ccc(Cl)cc1)c1ccccc1 (stereo not given) | inactive |  |
| COc1ccc(/C=N/NC(=O)C(=O)/C=C2\NC3(CCCC3)Cc3ccccc32)cc1 | inconclusive: 25.9 µM [inhibitor, single point] |  |
| Brc1ccc(/C=N/Nc2ccccn2)cc1 | inactive |  |
| CCCCCCCCN1C(=O)[C@H](CC(=O)NCc2ccccc2)C[C@@]2(C(=O)OCC)CCCC=C12 | inconclusive: 29.1 µM [inhibitor, single point] |  |
| O=C(NCCC1=CCCCC1)c1cc2ccccc2oc1=O | inconclusive: 14.6 µM [inhibitor, single point] |  |
| CC(C)N(C(=O)Cn1cc(SCC(=O)NCc2ccco2)c2ccccc21)C(C)C | inconclusive: 20.6 µM [inhibitor, single point] |  |
| COCCn1c(SCC(=O)Nc2ccc3c(c2)CCC3)nc2ccccc2c1=O | inconclusive: 29.1 µM [inhibitor, partial curve, poor fit] |  |
| CCOC(=O)c1c(C)oc2nc(C)nc(NCC3CCN(Cc4cccc(C)c4)CC3)c12 | inactive |  |
| Cc1ccc(C2=NC(C(F)(F)F)(C(F)(F)F)c3c(n(-c4ccc(F)cc4)c(=O)[nH]c3=O)N2)cc1 | active: 23.1 µM |  |
| CCOC(=O)c1c(C)[nH]c(C)c1S(=O)(=O)N(C)Cc1ccco1 | inactive |  |
| CCN(C(=O)CSc1ncccn1)c1c(N)n(Cc2ccccc2)c(=O)[nH]c1=O | inactive |  |
| Cc1ccc(C(=O)NNC(=O)c2ccc(S(=O)(=O)N3CCCCC3)cc2)cc1 | active: 23.1 µM |  |

| Structure (SMILES) | Potency | activity change, negative = growth inhibition |
| --- | --- | --- |
| COc1cc(/C=N/OCC(=O)Nc2ccc(OC(F)F)cc2)ccc1OCc1ccccc1 | inconclusive: 23.1 µM [inhibitor, single point] |  |
| CCOC(=O)C1=C[C@@H](C(C)(C)C)N(S(=O)(=O)c2ccc([N+](=O)[O-])cc2)[C@H]1c1ccccc1 | inconclusive: 29.1 µM [inhibitor, single point] |  |
| COCc1c(C(=O)NCC2COc3ccccc3O2)oc2ccccc12 (stereo not given) | inactive |  |
| Cc1ccc(S(=O)(=O)NC2c3cccc4cccc(c34)C2Sc2ncccn2)cc1 (stereo not given) | inconclusive: 23.1 µM [inhibitor, single point] |  |
| COc1ccc(-c2nn(-c3ccccc3C)cc2CNCCc2cnc[nH]2)cc1F | inconclusive: 23.1 µM [inhibitor, single point] |  |
| COc1cccc(Cn2c(=O)n(-c3cccc(Cl)c3C)c(=O)c3c4c(sc32)CN(C(C)=O)CC4)c1 | inconclusive: 29.1 µM [inhibitor, single point] |  |
| Cc1ccc(C)c(NC(=O)CN(C)C(=O)c2ccccn2)c1 | inactive |  |
| CCOC(=O)C1CCN(C(=O)c2ccc3c(c2)sc2nc(-c4ccccc4)cn23)CC1 | active: 23.1 µM |  |
| Oc1ccc(-c2nc3ncccn3c2Nc2ccc3c(c2)OCCO3)cc1 | inconclusive: 18.4 µM [inhibitor, single point] |  |
| Cc1cccc(-c2ocnc2C(=O)Nc2ccccc2C(=O)N2CCCC2)c1 | inconclusive: 25.9 µM [inhibitor, single point] |  |
| N#C/C(C(=O)NCc1ccccc1)=C1\SC(CCO)C(=O)N1c1ccccc1 (stereo not given) |  | inconclusive: -33.9% [inhibitor] |
| O=C(CCSCCC(=O)NN=Cc1cccc(Cl)c1)NN=Cc1cccc(Cl)c1 | inconclusive: 25.9 µM [inhibitor, single point] |  |
| Cc1cc(C)c(C(=O)/C=C/c2ccc(C(C)C)cc2)c(=O)[nH]1 | active: 16.4 µM |  |
| CCN(CC)S(=O)(=O)c1ccc2c(c1)c(=O)c(C(=O)NCc1ccc(Cl)cc1)cn2C | active: 9.2 µM |  |
| Cc1ccnc(NC(=O)c2ccc(Cl)c(S(=O)(=O)N3CCCCC3)c2)c1 |  | inconclusive: -31.1% [inhibitor] |
| C=CCSc1nnc(CNC(=O)c2ccc(Cl)cc2)n1CC | inactive |  |
| CCCCNC(=O)c1ccc(N2CCC3(CC2)OCCO3)c([N+](=O)[O-])c1 | inactive |  |
| Cc1ccc2oc(-c3ccccc3)c(C(=O)O)c(=O)c2c1 | active: 23.1 µM |  |
| Nc1c(C(=O)Nc2ccc(Cl)c(C(F)(F)F)c2)sc2nc(-c3ccncc3)ccc12 | active: 10.3 µM |  |
| COCc1ccc(CN2CCc3c([nH]c4ccccc34)C2CC(C)C)o1 (stereo not given) | inconclusive: 29.1 µM [inhibitor, single point] |  |
| c1ccc(COc2ccc(CNn3cnnc3)cc2)cc1 | inactive |  |
| CCOC(=O)c1cccc(C(=O)Nc2nc3ccc(OC)cc3s2)n1 | inconclusive: 11.6 µM [inhibitor, partial curve] |  |
| CCCCCC[n+]1c(-c2ccc(Cl)cc2Cl)csc1Nc1ccccc1 | active: 23.1 µM |  |
| C=C(C)CSc1nc2sc3c(c2c(=O)n1-c1ccccc1)CCN(C)C3 | active: 29.1 µM |  |

| Structure (SMILES) | Potency | activity change, negative = growth inhibition |
| --- | --- | --- |
| CCCCCC[N+](C)(C)CC/C=C1/c2ccccc2Sc2ccc(Cl)cc21 | active: 5.8 µM |  |
| CCc1ccc2c(c1)C(=O)C[C@]1(CCC[C@H](C)C1)O2 |  | inconclusive: -30.5% [inhibitor] |
| Cc1nc2c(-c3ccccc3)c(C)nn2c(C)c1CCC(=O)N1CCN(c2ccccc2)CC1 | inconclusive: 29.1 µM [inhibitor, single point] |  |
| CCC(=O)N1CCc2cc(Br)cc(S(=O)(=O)N3CCCC(C(=O)NCc4cccc(OC)c4)C3)c21 (stereo not given) | inconclusive: 20.6 µM [inhibitor, single point] |  |
| O=C(N/N=C/c1ccc2c(c1)OCO2)c1cccc(NC(=O)c2ccccc2Cl)c1 | active: 8.2 µM |  |
| CN(C(=O)CCc1ccccc1)c1nnc(-c2ccncc2)s1 | inactive |  |
| CC(=O)N1CCCc2ccc(NS(=O)(=O)c3ccc(C)c(C)c3)cc21 | inconclusive: 4.61 µM [inhibitor, partial curve] and inconclusive: 23.1 µM [inhibitor, single point] |  |
| O=[N+]([O-])c1ccc(N/N=C/c2cccs2)nc1 | inconclusive: 4.11 µM [inhibitor, full curve, poor fit] |  |
| Cc1ccc(Cc2nc3ccccc3nc2SCC(=O)N2CCN(c3ccccc3F)CC2)cc1 | inconclusive: 29.1 µM [inhibitor, single point] |  |
| CSc1ccc(S(=O)(=O)NCc2ccc(Cl)cc2)cc1 | inactive |  |
| CSc1ccccc1NC(=S)N/N=C/c1cccn1Cc1ccc(F)cc1 | active: 23.1 µM |  |
| COc1ccc(C(=O)COC(=O)c2cc(-c3ccccc3)nc3c(C)cccc23)cc1 | inconclusive: 29.1 µM [inhibitor, single point] |  |
| COc1ccc(S(=O)(=O)N2CCC(C(=O)N(CC(C)C)C3CCS(=O)(=O)C3)CC2)cc1OC (stereo not given) | inactive |  |
| CC[C@@H](C(=O)[C@@H](C)[C@@H](O)[C@H](C)CCc1ccc(C)c(O)c1C(=O)O)[C@H]1O[C@](CC)([C@H]2CC[C@](O)(CC)[C@H](C)O2)C[C@@H]1C | active: 2.99 µM and active: 2.31 µM |  |
| COc1cccc(C=NNC(=S)NN=Cc2cccc(OC)c2OC)c1OC | active: 4.11 µM |  |
| CCc1cc2c(cc3c(=O)n(CC(=O)N4CCC(C)CC4)nc(CC)n32)s1 | inconclusive: 13 µM [inhibitor, partial curve, poor fit] |  |
| CCCS(=O)(=O)c1ncc(Cl)c(C(=O)Nc2c(C(=O)c3ccccc3)oc3ccccc23)n1 | inconclusive: 7.31 µM [inhibitor, single point] |  |
| C(=N\c1nc2ccccc2n1Cc1ccccc1)/c1cccs1 | inconclusive: 10 µM [inhibitor, partial curve] |  |
| CC(=O)Nc1ccc(-c2ccnc3c2CC(C)(C(=O)NCc2ccc(F)c(F)c2)O3)cc1 (stereo not given) | active: 3.26 µM |  |
| CCc1nc(SCC(=O)c2ccccc2)c2c(=O)n(C)c(=O)n(C)c2n1 | inconclusive: 20.6 µM [inhibitor, single point] |  |
| CC1(C)Oc2ccc3ccc(=O)oc3c2/C(=C/Nc2ccccn2)C1=O | inconclusive: 25.9 µM [inhibitor, single point] |  |
| COc1ccc(Cl)cc1NC(=O)CN(C)C(=O)c1ccc2c(c1)OCCO2 |  | inconclusive: -32.9% [inhibitor] |

Reference: PubChem BioAssay AID686978 (National Center for Advancing Translational Sciences (NCATS), 2013)
